Assay results taken from the supplement of paper PMC3334620.
The full ranking holds about 33,000 sequences; the median of “E-score (-0.5 to 0.5)” is about -0.035, and the highest 2% start at about 0.34. This is one part of the list.

biological target: T1, Mot3 (UniProt P54785); test: PBM E-score (8-mer binding enrichment) (E-score (-0.5 to 0.5)); higher = stronger / more preferred TF binding; most listed sequences are background and not binding sites; conditions: protein concentration: 200 nM; construct: GST-full length
T1 sequence: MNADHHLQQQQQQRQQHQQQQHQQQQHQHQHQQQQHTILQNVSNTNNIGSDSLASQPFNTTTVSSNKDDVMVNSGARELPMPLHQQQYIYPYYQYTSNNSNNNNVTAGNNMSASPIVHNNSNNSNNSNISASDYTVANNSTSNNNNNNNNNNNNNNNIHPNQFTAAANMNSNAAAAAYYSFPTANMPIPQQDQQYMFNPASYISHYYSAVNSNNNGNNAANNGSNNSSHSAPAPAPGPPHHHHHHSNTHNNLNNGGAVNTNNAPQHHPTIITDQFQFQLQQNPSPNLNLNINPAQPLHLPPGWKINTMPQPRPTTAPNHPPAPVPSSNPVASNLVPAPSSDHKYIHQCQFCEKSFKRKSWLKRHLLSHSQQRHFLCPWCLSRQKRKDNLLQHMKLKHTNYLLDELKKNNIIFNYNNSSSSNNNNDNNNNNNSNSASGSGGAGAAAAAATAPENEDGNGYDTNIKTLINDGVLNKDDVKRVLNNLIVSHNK
In short: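 Full-length yeast transcription factors or their DNA-binding domains, GST-tagged and expressed with PURExpress, were applied at about 100-200 nM to universal all-10-mer Agilent arrays. These arrays had been made double-stranded by primer extension on fresh or once-stripped slides. Detection used fluorescent anti-GST, normalisation used masliner, and E-scores for ungapped eight-base words pooled with reverse complements came from the Universal PBM Analysis Suite.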

Sequence	PBM E-score
GTGATCAC	-0.27
ATGGGGAA	-0.129
AATCGACC	-0.241
AGTTCCCC	-0.283
AAGTAAGG	0.157
AAAGCATC	0.101
TACTCGAA	0.113
GGTAAACA	0.323
AGCTGAAC	-0.255
AAATCTGG	-0.124
AAGGGGGC	-0.138
AGTGAAGC	-0.161
CGCGGATC	-0.141
CGCACAGC	-0.18
AACGGTAT	-0.00635
AGGACTTA	-0.127
CCTGCATA	0.126
CCCAGTAC	-0.245
GCCCCTCC	-0.186
AATGGGTA	0.0916
GTGTCGCA	-0.00994
GGGAGACA	0.0178
AATGTGCC	0.275
GCGTTACC	0.0266
CCGCGAGC	-0.26

Sequence	PBM E-score
CGAGTGAC	-0.174
GAGTAGCC	-0.23
TCCTTTAA	0.249
CCCGCGTC	-0.0996
CGTAGATA	0.209
CCGGGCAA	-0.273
AGATTGCA	0.0463
ACTGTGGG	-0.177
ATATAATG	0.0479
ATCGTAGG	0.09
CACCAGTC	-0.0991
GCGACACA	0.0395
CGCTAGAG	-0.23
ATCATTCA	-0.0539
AACGGATC	0.141
CGATTAGC	-0.119
ACCCCTTA	-0.0114
GGAACGAA	0.157
GTGTAAGA	0.312
CTAGAGAG	-0.193
CTACCGTC	-0.228
GAGGTGTA	0.0524
CAAGGGTG	-0.106
CTTCAGGC	0.297
ACTTTGCT	-0.0166

Sequence	PBM E-score
CGGGTTAC	-0.108
GCGGATTA	-0.0721
GCTGCAGC	-0.254
TAAGGTAA	0.306
AATTCGGC	-0.0489
GCCTTTAA	0.322
GAGAGAGA	-0.277
CGTCATAC	0.0576
GCTTCGAA	0.0759
ATATGTGG	-0.0502
CTGCGCGA	-0.157
AGACAACT	0.00541
GAGAACCA	-0.0588
CCCCCACC	-0.396
ATACTCTC	-0.0192
CACGGGAA	-0.0334
ACCATGGT	0.0854
CGGTCGTC	-0.31
CCCCTTTA	0.0425
ACTCTGAG	0.0608
CCCAGACG	-0.154
GGCGGAAA	-0.129
CCTAGGTA	0.109
AGGCTCAG	0.24
CGGGAAAC	-0.0422

Sequence	PBM E-score
ATACCCCC	-0.268
ACTTCATG	-0.0568
CACCCGTA	-0.258
ATCGTCCG	0.109
AAATTCAT	0.117
ACGCGCCG	0.0455
AATCCATG	0.133
AACAGTTA	0.102
CCGCGAAC	-0.209
AGAGGAGC	-0.11
CCGTAACC	-0.177
ATTGCAGA	-0.0312
ATCTCTTG	-0.0945
CTCCCATA	-0.0967
GCTACGCC	-0.179
GAGGGAAA	-0.199
AGGGCACT	0.0516
CCTCATGC	-0.0978
CACCCTGG	-0.253
ACAGCCAC	-0.0458
TGAACCCA	-0.127
CAGTCGCC	-0.277
AGTTTTTA	0.0728
AGGAAGCA	-0.0622
AGATTCAT	0.0532

Sequence	PBM E-score
CGTAGAAA	0.314
GAAACTTA	0.157
AGCCGGAT	-0.356
CACAACAA	0.252
AATCTGGT	0.199
CGTACTAC	0.134
AAACTTTA	0.19
CAAGTGGA	-0.0962
CCTGAGGA	-0.0567
ACACCCGC	-0.0189
AAGTATTA	0.0795
GACCAAAC	-0.17
TAGTCCGA	-0.0853
GCTCAGCA	-0.0533
CTTACACC	0.0678
AGCCCTAT	-0.16
AAAAACAT	0.172
CTTGGACA	-0.0991
ACCCCTAC	0.0767
AATAGGTG	0.0976
AGATGGAA	-0.113
AATTTAGT	0.101
TGCGGCCA	-0.155
GTGGTTGA	-0.0344
GAGGATCA	-0.0459

Sequence	PBM E-score
CGAGCAGC	-0.0701
CCAAATGG	-0.18
CGGTTCGC	-0.207
AAGGCGTA	0.141
AGTCAGGG	-0.269
AGCCTTGC	0.0701
ACTATGTC	0.104
ATAGGCTG	-0.0765
GCTTCGAC	-0.148
ACGTAGGG	-0.0716
ACTGTGCA	-0.0432
CGAGGTTA	0.073
CCTTTTTA	0.291
TGAGGCCA	0.0399
CGTAAATC	0.143
AGCCTACG	0.18
CATTGGAC	-0.204
TAACATGA	0.363
AAGCTTAC	-0.0547
TCGGTGAA	0.0157
CAGTGCTC	-0.125
ATTAAGCA	-0.0855
CGCCCTGC	-0.234
GAGGGAGA	-0.281
AAAACCTC	-0.0354

Sequence	PBM E-score
ATAGTAAG	-0.0818
CACGTACA	0.266
AGTCCGCC	-0.263
GATTTAGA	-0.0125
CGCAACCG	-0.32
GACTTCGA	-0.0506
GCGAGTTA	0.0884
CAGCTTCG	-0.0338
AATCTATA	0.123
ATAGGATG	-0.0878
AAGCGTAC	0.0717
CGGGGTGA	-0.187
AGCGAGGC	-0.151
GGACTGTA	0.0675
ACATCGCT	0.0611
CGGCAAAC	-0.217
ACTCGGGG	-0.29
AGGCAGAT	0.0714
AATGCGGT	-0.155
CCTCCAGA	-0.0591
AGGTTCCA	-0.196
GGACCACA	-0.128
CGTTTTAG	-0.00668
ACGAAGTA	0.0208
AAAGTGTT	0.246

Sequence	PBM E-score
GCTCAGGA	0.126
ACGACAGG	0.147
AGGTTCGC	-0.0542
AATATGTA	0.277
ACTCACCC	-0.299
ACTCCGCC	-0.292
TAGAACGA	0.137
ATACACCC	-0.0606
CAAGTGAA	0.0267
TGAACGAA	-0.0491
TAAATGCA	0.0257
ATCATTGG	-0.0992
CATCCCTC	-0.096
TAATTAAA	0.14
GGAGTCCA	-0.101
CAACGGCG	-0.15
AGTGTTGC	0.0603
AGTCAGAG	-0.26
TAATCGCA	0.113
AAGAGAAG	0.0573
AGCGTTGC	0.0285
TTAGTCAA	-0.0261
ATGCTCGG	-0.156
AGGTCAGA	-0.3
AAGTGGAT	-0.0844

Sequence	PBM E-score
AAACGTCT	0.0253
CGTTGTCA	-0.048
CTCCCGGC	-0.216
CGGGTGGC	-0.223
AGGCTTTG	-0.124
CCGTGACA	-0.105
AGGTCATG	-0.194
GTATCTGA	0.0923
GATCTGTA	-0.0261
CTCTGCTC	-0.218
AGCTTAAT	-0.0327
CGTTGAAG	0.116
ACAGGGGA	-0.0298
AGTCAGCA	0.128
CCTTGTCC	-0.118
TACGTGGA	0.0343
ATACTTGC	0.17
GCGAGTAC	0.102
CCTCTAGA	-0.0256
ATACTTCC	-0.0416
CAACTGTC	-0.154
CCGAGGCC	-0.338
GTCGATGA	-0.166
GCGAGGTA	-0.0111
CGATCTGC	-0.265

Sequence	PBM E-score
GAATACTC	-0.0747
ATACGAGA	0.0959
ACGTGGGG	-0.183
GACTGGGC	-0.137
GGGCCGCA	-0.243
CCGTTAAC	0.0218
AAAAAATT	0.22
AGTCCCAG	-0.0882
ACGAGTAT	-0.0294
ACCAAGCT	-0.1
GGCAATCA	0.187
CATGTTGG	0.286
CACCAGGG	-0.212
CTCCTTGA	-0.122
AGTTGGAC	0.0582
ACAAACCA	-0.015
AACGCGCA	0.156
ACTGCTGA	-0.153
AAATGAAG	-0.0635
CTGAGTAA	0.0746
ATAATAAC	0.112
ACTCCACG	-0.262
CTAAGCCA	-0.139
AGAATAAG	-0.065
GCCATCTA	-0.0511

Sequence	PBM E-score
CCTGTAGA	0.159
AGATCAAA	-0.0722
ATACCCTG	-0.166
GGCATTTA	0.207
CCAGATAA	-0.116
TGCCCAAA	0.167
AACCTAAC	-0.00642
AAGGTGGG	-0.139
ATAGCGCC	0.228
CAAGCAGA	0.0203
CAACCGGC	-0.229
ATTAGCTA	0.137
ATTCGCCC	-0.214
ACCCTGCG	-0.0602
AAGTGCCT	0.48
ATGAGCTG	-0.105
AGCACTAC	-0.184
ATGTGTAC	0.285
CCTATGGA	0.0104
ACGCGTGG	-0.0954
CCAGACGC	-0.195
CAACTAAC	0.101
AAACGGAA	-0.0641
GCGGAGGA	-0.0934
CCTGGTGC	0.0368

Sequence	PBM E-score
ATATTACC	0.262
TGCGCACA	0.0582
AATTATCG	0.11
TACTAGTA	0.296
GAGGTCCC	-0.303
ACATAGGA	0.0993
GCTCTCGA	-0.119
CAGCCGCC	-0.28
ACTAGAGC	-0.122
AATATAGC	0.0407
AGAAGAAA	-0.00366
GCTAGCAA	-0.0278
CGCGGGGC	-0.0394
AATCGGGG	-0.109
GAGTTCGA	0.00472
GCTAACTA	0.00452
AACGGCGT	0.0368
CGACTTAG	-0.183
AGTACGAG	-0.147
ACTAACAT	0.287
ACCAAACG	-0.18
CTACTGTC	-0.103
ACTCCAGT	-0.369
GAGTTTAC	0.193
GCCCTAAA	-0.125

Sequence	PBM E-score
ACTCTTCG	-0.0917
GCCCCTTA	-0.22
AGCAGATG	-0.136
CCATTTCA	-0.142
CGCGACTC	-0.218
TATAGAGA	-0.0555
CGTGACAC	-0.0532
AAAGCGGG	-0.0616
GCAACGAC	-0.00281
CTCATGTA	0.359
AATCGAAA	-0.14
AGTTTGTA	0.204
GAGACCAC	0.0974
CGATCGGA	-0.154
CCGACTCA	-0.35
CAAGAGTA	0.116
ATTTGAAG	-0.118
GACCTACC	-0.119
ATACCAGC	-0.225
AGGTTGAT	-0.099
CGTATTCA	0.234
ATATCGAC	-0.0551
CGATTACG	0.123
GCCACGGA	-0.162
AACAACTT	0.126

Sequence	PBM E-score
CTCCCATC	-0.138
CAGAGACA	-0.0179
ACACCTCT	0.0285
ATTAGTAG	0.196
GACTATCC	-0.248
TTATGAAA	0.0346
AGCTCGTC	-0.286
GCTGCAAA	-0.025
GAATTAGA	-0.0571
ACACTTTG	0.168
ACAACTTC	0.0756
CGGCCTCA	-0.0433
AGGACCCC	-0.273
CGGGCCCA	-0.0941
CCGATTCA	-0.199
CAACGACC	-0.124
GTGGGAAA	-0.148
ATTAGACC	-0.114
CCGCAAAA	0.00107
